Measurements published in PubChem BioAssay AID1461 (National Center for Advancing Translational Sciences (NCATS), 2008).
The whole screen tested about 220,000 compounds, of which about 2,300 (1%) were called active. Inconclusive means that the source gave no clear call. Such entries were picked first, then a sample of the others. Calls follow the shape of the dose curve; as a rule, active = well fitted inhibition curve with a large enough effect; inconclusive = small, poorly fitted or top-dose-only effect, or effect the other way; inactive = no such curve, though single readings can be large or run the other way. No potency is given beside an inconclusive call; the fits are too rough.

Each molecule was assayed against Neuropeptide S receptor (Homo sapiens) (UniProt Q6W5P4) (assay: qHTS Assay for Antagonists of the Neuropeptide S Receptor: cAMP Signal Transduction). Settings: CHO-NPSR cells, cAMP TR-FRET, antagonist mode; series mostly up to 38.3 µM.
Chain of UniProt Q6W5P4 (Q6W5P4 whole entry, looked up): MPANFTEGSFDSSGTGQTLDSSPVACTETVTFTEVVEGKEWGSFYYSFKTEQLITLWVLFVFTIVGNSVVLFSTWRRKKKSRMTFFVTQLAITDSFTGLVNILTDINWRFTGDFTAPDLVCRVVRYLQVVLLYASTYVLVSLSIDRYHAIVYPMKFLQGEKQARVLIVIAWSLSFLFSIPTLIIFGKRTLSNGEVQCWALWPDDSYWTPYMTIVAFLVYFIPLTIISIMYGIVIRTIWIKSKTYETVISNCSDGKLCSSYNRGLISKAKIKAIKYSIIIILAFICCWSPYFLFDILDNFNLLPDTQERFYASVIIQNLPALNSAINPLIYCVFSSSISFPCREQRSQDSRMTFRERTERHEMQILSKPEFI
Also: nearly all actives have a fitted effect of over 50% in size.
Potency is read from the fitted curve at half-maximal effect; tags tell the direction and shape of the fitted curve.

| Compound | Potency |
| --- | --- |
| CC1=C/C(=N\OS(=O)(=O)c2ccccc2)C(C)=CC1=O | active: 2.51 µM |
| Cc1ccc(NC(=O)CN2CCC3(O)CCCCC3C2c2ccc3c(c2)OCO3)c(C)c1 (stereo not given) | inconclusive [inhibitor, single point] |
| CC(C)(C)c1csc(NC(=O)c2cccs2)n1 | inconclusive [inhibitor, single point] |
| Cc1cc(C)nc(N/N=C/c2ccccc2OCc2cccc(Br)c2)n1 | inconclusive [inhibitor, single point] |
| O=C1C(=Cc2cccn2-c2ccccc2)C(=O)c2ccccc21 | inactive |
| CCOc1ccccc1Oc1cn[nH]c1-c1ccc(OC)cc1O | inconclusive [inhibitor, single point] |
| COc1cccc(/C=N/NC(=O)c2cccs2)c1 | inconclusive [activator, single point] |
| O=C1O/C(=C/Br)CCC1c1cccc2ccccc12 (stereo not given) | inconclusive [inhibitor, partial curve] |
| CCCCCCCN1N=C(C)C(C(=O)c2ccccc2)C1=O (stereo not given) | inconclusive [inhibitor, single point] |
| Cc1ccc(C(=C2C3C=CC2C2C(=O)NC(=O)C32)c2ccc(C)cc2)cc1 (stereo not given) | inconclusive [inhibitor, single point] |
| COc1ccccc1/C=N/NC(=O)CNC(=O)c1ccccc1 | inactive |
| Cc1cccc(-n2c(C)n[nH]c2=S)c1C | inactive |
| CCCCCCn1c(COc2ccccc2F)nnc1SCC(=O)N1c2ccccc2NC(=O)C1(C)C | inconclusive [inhibitor, single point] |
| O=C(Nc1ccc(-n2cnnn2)cc1)C1CCCCC1 | inactive |
| COC(=O)c1ccc2c(c1)C(=O)N(C1CCCCC1)C2=O | inconclusive [inhibitor, partial curve, poor fit] |
| Cc1cc(Oc2cnn(C(C)(C)C)c(=O)c2Cl)cc(C(C)C)c1 | inconclusive [inhibitor, single point] |
| Cc1ccc(CN(c2ccc(C(=O)Nc3ccc4c(c3)OCO4)cc2)S(C)(=O)=O)cc1 | inconclusive [inhibitor, single point] |
| CCN(CC(=O)NC(c1ccccc1)c1ccccc1)Cc1nc2ccccc2c(=O)[nH]1 | inconclusive [inhibitor, partial curve] |
| C=C(C)CSc1cc(C)c(C#N)c2nc3ccccc3n12 | inactive |
| Cc1oc2cc(O)cc(O)c2c(=O)c1-c1ccc2c(c1)OCCCO2 | inconclusive [inhibitor, single point] |
| Cc1ccc(NC(=O)C(c2ccc(Cl)cc2)N2CCCCC2)cc1 (stereo not given) | inconclusive [inhibitor, single point] |
| O=C(c1ccco1)N1CCN(Cc2nnnn2CC2CCCO2)CC1 (stereo not given) | inactive |
| COc1cc(/C=C2\SC(=O)N(CCNC(=O)c3sc4cc(F)ccc4c3Cl)C2=O)cc(OC)c1OC | inconclusive [activator, partial curve] |
| COC(=O)c1ccc(Oc2nc(C(N)=O)cc(-c3ccccc3)n2)cc1 | inconclusive [inhibitor, single point] |

| Compound | Potency |
| --- | --- |
| CC1(C)CC(=O)C2=C(C1)OC1=C(C(=O)CC(C)(C)C1)C2c1ccc(O)cc1O | active: 12.6 µM |
| CCCN1CC=C2C(C#N)=C(N)C(C#N)(C#N)C(c3cc(OC)ccc3OC)C2C1 (stereo not given) | inconclusive [inhibitor, single point] |
| CCOc1cccc(-c2nn3c(-c4cc(C)[nH]n4)nnc3s2)c1 | inconclusive [inhibitor, partial curve] |
| O=c1c2c(-c3ccccc3)csc2nc2c3ccccc3c(NCCN3CCOCC3)nn12 | inconclusive [inhibitor, single point] |
| Cc1cccc(N2CCN(C(=O)C(Cc3ccccc3)n3cccc3)CC2)c1C (stereo not given) | inconclusive [inhibitor, single point] |
| COC(=O)c1cc(=O)n(Cc2ccc(OC)c(OC)c2)c(=Nc2ccc(F)cc2)s1 | inconclusive [inhibitor, partial curve] |
| Clc1ccc(COn2nnc3ccccc32)c(Cl)c1 | inactive |
| Cc1ccc(C(C(=O)NC2CCCC2)N(Cc2ccc(F)cc2)C(=O)c2csnn2)o1 (stereo not given) | inconclusive [inhibitor, single point] |
| Fc1cccc2sc(Nc3nnc(-c4ccco4)o3)nc12 | inconclusive [inhibitor, single point] |
| O=C1CC[C@@H](CN(Cc2ccccn2)Cc2nc(Cc3cccc(C(F)(F)F)c3)no2)N1 | inactive |
| CCOC(=O)c1ccc(NC(=O)CSc2nnc(C3CCCCC3)n2C)cc1 | inconclusive [activator, full curve, poor fit] |
| O=C(CCC1N=C2c3ccccc3N=C(SCc3ccccc3Cl)N2C1=O)NCc1ccco1 (stereo not given) | inconclusive [inhibitor, partial curve] |
| Cc1ccc(Nc2nnc(SCC(=O)Nc3cccc(S(=O)(=O)N4CCCCC4)c3)s2)cc1 | inactive |
| COc1ccc(C2C=C(c3ccc(Br)s3)Nc3ncnn32)cc1OC (stereo not given) | inactive |
| Cc1c(C(=O)OCC(=O)NCC2CCCO2)cccc1[N+](=O)[O-] (stereo not given) | inactive |
| CCCCn1c(/N=C/c2c[nH]c3ccccc23)nc2ccccc21 | inactive |
| O=c1c2ccccc2nnn1CSc1nc2ccccc2c(=O)n1Cc1ccco1 | inconclusive [inhibitor, single point] |
| CC(C)Cc1cc(C(=O)N2N=C(C(F)F)CC2(O)C(F)F)c2ccccc2n1 (stereo not given) | inconclusive [inhibitor, single point] |
| Cc1c(C(=O)N2CCOCC2)sc(NC(=O)c2ccc3c(c2)OCO3)c1C#N | inconclusive [inhibitor, single point] |
| CC(NC(=O)Cn1nc(-c2ccccc2)c2ccccc2c1=O)c1ccccc1 (stereo not given) | inconclusive [inhibitor, single point] |
| O=C(c1ccccc1)N1N=C(c2ccccc2)CC1c1ccc2nccnc2c1 (stereo not given) | inconclusive [inhibitor, single point] |
| CCOC(=O)c1c(-c2ccc(OCC)cc2)csc1NC(=O)CCN1C(=O)c2ccccc2C1=O | inactive |
| COc1ccc2c3c(c(=O)oc2c1OCC(=O)C(C)(C)C)CCCC3 | inconclusive [inhibitor, full curve, poor fit] |
| C=CC[n+]1c(-c2ccc(OCC)cc2)csc1NNC(=O)Nc1ccccc1 | inconclusive [inhibitor, single point] |

| Compound | Potency |
| --- | --- |
| COc1ccc(C(=O)Nc2scc(-c3ccc(Cl)cc3Cl)c2C(N)=O)cc1 | inconclusive [inhibitor, partial curve] |
| Cc1ccc(CSc2nc3c(cc2C#N)CCC3)cc1 | inconclusive [inhibitor, single point] |
| CCOC(=O)c1[nH]c2ccc(OC)cc2c1NC(=O)CN1CCC2(CC1)OCCO2 | inactive |
| O=C(CC(Nc1ccc(F)cc1)c1ccccc1)c1ccccc1 (stereo not given) | inconclusive [inhibitor, single point] |
| COc1ccccc1CN(Cc1cc2cc(C)cc(C)c2[nH]c1=O)Cc1nnnn1CC1CCCO1 (stereo not given) | inactive |
| COc1cc(NS(=O)(=O)c2ccc(C)cc2C)cc(OC)c1OC | inactive |
| CC(=O)N(C)c1ccc(NS(=O)(=O)Cc2ccccc2)cc1 | inactive |
| CCCCc1ccc(NC(=O)CSC2=C(C#N)C(c3ccco3)C3=C(CCCC3=O)N2)cc1 (stereo not given) | inconclusive [inhibitor, partial curve, poor fit] |
| Cc1ccc(/C=C2/SC(=O)NC2=S)o1 | active: 12.6 µM |
| c1ccc(CC(Nc2ccccn2)c2ccccc2)cc1 (stereo not given) | inconclusive [inhibitor, single point] |
| COC(=O)c1c(C)[nH]c(C)c1C(=O)c1ccccc1Cc1ccccc1 | inconclusive [inhibitor, partial curve] |
| Cc1nn(C)c(C)c1S(=O)(=O)N(CC(=O)N1CCc2ccccc2C1)c1ccc(C(C)C)cc1 | inconclusive [inhibitor, single point] |
| Cc1ccccc1NC(=O)c1ccc(Nc2c([N+](=O)[O-])cc([N+](=O)[O-])c3ccccc23)cc1 | inconclusive [activator, full curve, poor fit] |
| O=C(CN(C(=O)CCC(=O)Nc1nccs1)c1ccc(F)cc1)NCC1CCCO1 (stereo not given) | inconclusive [activator, partial curve] |
| COc1ccc2nc(SCC(=O)Nc3ccc4sc(C)nc4c3)c(C#N)cc2c1 | inconclusive [inhibitor, single point] |
| CC(C)C(=O)N1CCc2cc(-c3csc(N)n3)ccc21 | inactive |
| Cn1cc(CNC(=O)c2cc(-c3ccccc3)nc3ccc(Br)cc23)cn1 | inactive |
| COc1ccc2nc(NC(=O)CN3CCN(C)CC3)sc2c1 | inactive |
| CCOC(=O)Cc1csc(SCn2nnc3ccccc3c2=O)n1 | inactive |
| COc1ccc(N(CC(=O)Nc2ccc(C)c(C)c2)S(=O)(=O)c2c(C)n[nH]c2C)cc1 | inconclusive [inhibitor, single point] |
| Cc1ccc(-c2nn(-c3ccccc3)cc2CN(Cc2ccccc2)C(=O)c2ccco2)o1 | inconclusive [inhibitor, single point] |
| CCC(C)N=Cc1c(NCc2ccco2)nc2c(C)cccn2c1=O (stereo not given) | inconclusive [inhibitor, partial curve, poor fit] |
